# From the supplement of paper PMC11417369
# The other results are listed elsewhere or left out.
# System: PfAP2-HC AP2 domain (GST-tagged)
# Assay: gcPBM binding intensity (ln(normalized median fluorescence intensity)); higher = stronger DNA binding
# Method in brief: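 An Agilent 4 × 180k array carrying primer-extended double-stranded 36-bp intergenic genomic probes and negative controls received GST-tagged P. falciparum DNA-binding domains expressed in E. coli, about 25 μg on average, for 1 h. The binding buffer contained 1× PBS, 1% milk, 0.2 mg/ml BSA, 0.5% salmon testes DNA and 0.03% Triton X-100. Binding intensity is the top Masliner-normalised natural-log median intensity across replicate spots of either probe orientation, read after Alexa488 anti-GST antibody staining and a 488 nm scan.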
row,Sequence,gcPBM binding intensity (ln)
1,AAAACTATAATGAATAGTACATAAAAATGGATATAT [XGTACX_site6056],9.91
2,AATCGATAAAATGTTGTGCACATATTTTTATATTTA [GTGCAC_site9651],9.71
3,TTTTGACATTAATTACTATAGTGTTCTTATAAAATT [TGCATGCA_negctrl_site589],9.62
4,CATTTTATTTTAATATGTACTTAAAGAAAAAAAATT [XGTACX_site7670],9.27
5,AATATGTATCCATACACACATACATTTTATTTGCAA [CACACA_site874],9.85
6,TTTTATTTATTATTTACACACACGTAGGTGTCCATA [CACACA_site430],10.1
7,TTAAATTACTAATGTGCACACATACTAACGTTTAAA [CACACA_site3573],9.9
8,TATCTTATTTTATCTCGTACATAAAATTAAAAAATT [XGTACX_site3636],9.29
9,TATTATAACTAAAAAAATCACATAAAATACTTTATT [CACACA_negctrl_site2],9.39
10,TTATATTTTTTAATTACACACAATTCTTATAAATAT [CACACA_site7870],9.68
11,TTAACCTTTATATAATACGTATCATCCTCATATATA [CACACA_negctrl_site86],9.74
12,ATATAAAATCAACAAAAAAAAAAAATATATATATAT [XGTACX_negctrl_site251],9.45
13,TGTATATATTTGTGCACACCAAAGTTTGATTTTATT [CACACA_site1860],10.1
14,ATATATAATATATGATGTACTTAATAATTTTTTTTT [XGTACX_site5715],9.5
15,TAATAATCCACAAGCACACACACACCCATATATATA [CACACA_site1267],10.8
16,TTAAGGATCCACGATACACACATATCATTCAACAAA [CACACA_site1924],9.8
17,TATATACACATGCGCACACACAAGTGGGAAATTTGG [CACACA_site6930],10.2
18,AATATTTGCCTATGTTGTACTGACATTTTTTTAAGT [XGTACX_site6836],9.73
19,TTATTCTAGTAGTGTGTGCGCATGGACAATGCAATA,10.5
20,ATACATATAATATATGCATGTACCAATCAAATATAT [TGCATGCA_site192],9.68
21,TATATATCGTTATATACACACATGTATATAAAAAAT [CACACA_site7501],9.88
22,TTATTATATATTTTATTTATTAATAGTATATATTAT [TGCATGCA_negctrl_site155],9.5

row,Sequence,gcPBM binding intensity (ln)
1,TAATTTTTTTTTATGATACACACTTGGATAATTAAA [CACACA_site562],9.49
2,ATATTTTATTTATATACACACACATATATATATTAT [CACACA_site8177],10.1
3,CTTTATATAAAATAAAGTACATAAATTATGATATAT [XGTACX_site3699],9.52
4,TTCTTTATATACAAACCAAAATATTATGTATAATAA [CACACA_negctrl_site15],9.37
5,TGTAATGTTTACAACACACAAATTAGAAATACAAAA [CACACA_site6924],9.79
6,ACATATTTAAAAACATGTACAAATATATTTATAATT [XGTACX_site661],9.55
7,AAGGAAGATATATACACACATACAAATATATATATA [CACACA_site2181],9.97
8,TTGTGTTTTATTATTTTATTATTACTATTATAATGT [GTGCAC_negctrl_site484],9.87
9,ATAAAACATAAATACATACACACATAATATATATTA [CACACA_site110],9.99
10,TAAAAATGGGTATGTACACACTTTATTTTTAATACA [CACACA_site5404],9.72
11,TATAAACATAAATATACACACAAACATATATGTATT [CACACA_site8324],10
12,CGTTTCCCCAATGGTTGTACAATATATATATATATA [XGTACX_site8641],9.7
13,AGACATATAATATATACACACATATATATATATATA [CACACA_site1066],9.74
14,TTATTTATAATGTTGTGTACATATATGAATATACCA [XGTACX_site3111],9.57
15,AAGAAAAAATAAAGCACACAAATATTTTAAAAACAC [CACACA_site3325],9.96
16,TTTTTTCAATTGGAAATTATTTTACAATGAAGGGTA [XGTACX_negctrl_site469],9.22
17,GATATATATACATGTGTGCACCATGCAACTTGTTTT,10.2
18,TATTTTACGTATTGTTGTACTTGAAACAAATATACA [XGTACX_site8778],9.54
19,ATATTGGAGCACAACACACACAAGTATATATATGGA [CACACA_site1546],10.1
20,AAATAGCCAAAAATCATGCACACCTAAAAAAAAAAA [CACACA_site2572],9.77
21,TATATATATATATATTGTACATATATTATTATATAT [XGTACX_site7447],9.59
22,AATTCTCTTAATAAATAAACACAAATAAATAATAAA [GTGCAC_negctrl_site499],9.51

row,Sequence,gcPBM binding intensity (ln)
1,CACATACAGACATACACACACATATATATTAATATA [CACACA_site546],10.2
2,CATACATACAAACACACACACACACCGATATATATA [CACACA_site8952],10.7
3,ATCAACATCTAACATTGTACATGTGATGTGTAAAAG [XGTACX_site547],9.78
4,ATATTTGCCCAAGATAGTACATATATATATATATAT [XGTACX_site7756],9.8
5,TATATAATAAAAAAAAGTACTTGGACAATATTATTT [XGTACX_site2802],9.63
6,ATCAAAATATTTATATGTACATATTAAAAATATAGA [XGTACX_site725],9.63
7,TTAATTTACATGAACTGTACATAACATTTTTTTAAA [XGTACX_site4672],9.34
8,TCAGTAATACTTGAATGTACTTATATTGTTTGTTTG [XGTACX_site6449],9.82
9,CCTATATTAAAACAAGCACACAATCGCATAATATCC [CACACA_site9052],10.2
10,ATTATATATCCCTATTCACACATGTATTATATAAAT [CACACA_site5486],9.89
11,TAATAAAGTGAATAATGTACATTTTATTTATTATAT [XGTACX_site6614],9.64
12,GAAAAATTAAAAATAACACACACATATATATATTTA [CACACA_site8896],10.3
13,ATTTATTTTATATGTTGTACAAACATTTTAAAACAT [XGTACX_site6919],9.51
14,TCTTTTTCTTGACGAGTGCAAAAATTGTGTTTGAAA,9.44
15,ATAAATAAATAAATAAATAAATAAATAAATATATAT [CACACA_negctrl_site1728],9.74
16,CTAATATCTGTATGCACACACAATAAATACATATTT [CACACA_site5797],9.97
17,AATGCCTTGTTGAGGTGTACTGAATGTTATTTTAAT [XGTACX_site3255],9.65
18,TTTTTTTAAAGAATTATCATAAAATGATTGCATCAT [XGTACX_negctrl_site141],9.34
19,TTAACATATTTGTTAGTGCATTTTGATATTACACAT [GTGCAC_site9978],9.81
20,AAAAAAATTAAATGTACACACACCTTAAACAATGTC [CACACA_site1855],10.1
21,CAAAAACGGAAGTGGTGTACCGATATTATATAAACA [XGTACX_site4962],9.77
22,GGAGAATAGTGGAAAACACACACGTTTGAGATATGG [CACACA_site1168],9.91

row,Sequence,gcPBM binding intensity (ln)
1,TTTTTTTTTTTTACCTGTACATGTCAGCAAACTTTT [XGTACX_site1171],9.73
2,AACATTATAAGACACACACACACATATATATATATA [CACACA_site8259],10.8
3,AGGTAGTTCTGTATCACACACATATATATATATATA [CACACA_site2214],10.1
4,ACTCTTAAAATGTATTGTACATAATTTTTACAAGGG [XGTACX_site6611],9.5
5,AAAAAAAATATATAAACACACATATTTATATACTCA [CACACA_site4984],9.73
6,ACATATAATAAAAAATGTACACACATAAGAAAATTT [XGTACX_site6153],10.3
7,ACTATAAATATATAAATATATATATATATATATATA [GTGCAC_negctrl_site65],9.4
8,TTTCCATTATGATATAGTACATAAATATATGTAATA [XGTACX_site6992],9.33
9,TTGTGTGTATGTATACATATATATATTGAGACGAAT [TGCATGCA_negctrl_site382],10
10,TATGTCAATTTTCATACATGCGCATAATCTTTATTT [TGCATGCA_site807],10
11,ATAAATAAGATACGTACACACATATACAAAATATAC [CACACA_site3661],9.98
12,TAAATACACTGTAGCGCACACGGCCAAAAAAAAAAA [CACACA_site1818],9.91
13,TTATTATCCTATATTTCTTTTCCTTCTTCAAAATTA [CACACA_negctrl_site1314],9.45
14,TACTATCTATACAATACACACAAAAAAAAAAAAATA [CACACA_site3981],10.2
15,TAATATCATTTATATTGTACTATAACAAAATCTATA [XGTACX_site7700],9.59
16,AATTGTAAATTGGGCACTTATAAAAATGAACAAATA [CACACA_negctrl_site1583],9.71
17,TCATAAAGAACAAAGTGTACCTATATATTACATACA [XGTACX_site7595],9.59
18,TATAAAACCCTACTGTTTCTTCTTTATTGATATATT [TGCATGCA_negctrl_site285],9.69
19,AAAGTTTTTATACATACACACCTATAAATTAAGTGC [CACACA_site7198],9.62
20,GAAAGAATAAAATAAACATGCAAATAAAACATAAAA [TGCATGCA_site471],9.82
21,TTTTCAATATATAGAGCATGCGCATCCACAAATATG [TGCATGCA_site380],9.51
22,AATGGAAAATTATTAACACACACATATAAATATATA [CACACA_site7899],10.1
